The entries are a selection whose mix differs from that of the whole data set. At the low end of the ranking the order means little.

The assay addresses ZNF721 DBD1 (UniProt Q8TF20-2). Nature of the assay: HT-SELEX. The note with it: 20 mM HEPES pH 7, 140 mM KCl, 5 mM NaCl, 1 mM K2HPO4, 2 mM MgSO4, 100 uM EGTA, ZnSO4, 0.1% Tween20; room temperature, 1 h; high values mean tight binding; double strand, one strand shown.
For the sequence AAACTAGCAT, the binding signal (relative 10-mer count) was 0.00055.
The result for AAAACAGTGT reads 0.00055; that for CAAAAAACAG, 0.000917.
The value for ACAGGGTATC was 0.000367; that for AAAAGCAGTG was 0.000596; that for AAACACTGCT was 0.000505.
The result for AAAAAGGCAT reads 0.00266; that for CAGGGTTGCC, 0.000459; that for CAACCACCCC, 0.00486.
AACAGAGTAC showed a binding signal (relative 10-mer count) of 0.000183.
For AACAGCATAT, the binding signal (relative 10-mer count) came to 0.000183.
The value for CACCGCCACC was 0.00339; that for CAGCGTTGCC was 0.000229; that for AAAACAGCCC was 0.000275.
The value for CACAAAACAG was 0.000917.
The value for CCAGCCCACC was 0.00353.
AAACAGGGTA: the binding signal (relative 10-mer count) was found to be 0.000826.
The result for GCAACACTGC reads 0.000229.
The value for ACAGTGTATC was 0.000413; that for AAAAGCTGCC was 0.0372; that for CAGGGTTTCC was 0.000183.
AAAACAGCAG gave a binding signal (relative 10-mer count) of 0.000596.
The sequence ACAAAACAGT had a binding signal (relative 10-mer count) of 0.000505.
The result for GAGACACTGC reads 0.000321; that for ACAGTGTTTC, 0.000321.
The value for CACTGTTTTC was 0.000505.
The sequence ACCGCCCCAC gave a binding signal (relative 10-mer count) of 0.0033.
The result for CCTCCACCCA reads 0.00505.
The value for CCCTGTTTTC was 0.000459; that for GGGTGGGGGA was 0.00885; that for CCCACCGTCC was 0.00449.
The result for AAAAACAGTC reads 0.000505; that for AAAACAGAGT, 0.000321.
On to AAACAGGGTT, for which the binding signal (relative 10-mer count) amounted to 0.000138.
The result for CAGGGTATCC reads 0.000505; that for ACAGTGTTGC, 0.000321; that for ACCAAAAAAA, 0.00904.

The record behind these values is PMC13541613.
